{"source": "paper PMC4336329", "about": "(PLoS ONE, 2015)", "note": "The campaign covered roughly 310,000 compounds. About 2,200 (0.71%) showed an effect of 50% or more. Effects have a minus sign here. The list shows a part of the results."}
{"molecular_target": "human ether-à-go-go-related gene (hERG) potassium channel (human, UniProt Q12809)", "sequence (Q12809 whole entry, looked up)": "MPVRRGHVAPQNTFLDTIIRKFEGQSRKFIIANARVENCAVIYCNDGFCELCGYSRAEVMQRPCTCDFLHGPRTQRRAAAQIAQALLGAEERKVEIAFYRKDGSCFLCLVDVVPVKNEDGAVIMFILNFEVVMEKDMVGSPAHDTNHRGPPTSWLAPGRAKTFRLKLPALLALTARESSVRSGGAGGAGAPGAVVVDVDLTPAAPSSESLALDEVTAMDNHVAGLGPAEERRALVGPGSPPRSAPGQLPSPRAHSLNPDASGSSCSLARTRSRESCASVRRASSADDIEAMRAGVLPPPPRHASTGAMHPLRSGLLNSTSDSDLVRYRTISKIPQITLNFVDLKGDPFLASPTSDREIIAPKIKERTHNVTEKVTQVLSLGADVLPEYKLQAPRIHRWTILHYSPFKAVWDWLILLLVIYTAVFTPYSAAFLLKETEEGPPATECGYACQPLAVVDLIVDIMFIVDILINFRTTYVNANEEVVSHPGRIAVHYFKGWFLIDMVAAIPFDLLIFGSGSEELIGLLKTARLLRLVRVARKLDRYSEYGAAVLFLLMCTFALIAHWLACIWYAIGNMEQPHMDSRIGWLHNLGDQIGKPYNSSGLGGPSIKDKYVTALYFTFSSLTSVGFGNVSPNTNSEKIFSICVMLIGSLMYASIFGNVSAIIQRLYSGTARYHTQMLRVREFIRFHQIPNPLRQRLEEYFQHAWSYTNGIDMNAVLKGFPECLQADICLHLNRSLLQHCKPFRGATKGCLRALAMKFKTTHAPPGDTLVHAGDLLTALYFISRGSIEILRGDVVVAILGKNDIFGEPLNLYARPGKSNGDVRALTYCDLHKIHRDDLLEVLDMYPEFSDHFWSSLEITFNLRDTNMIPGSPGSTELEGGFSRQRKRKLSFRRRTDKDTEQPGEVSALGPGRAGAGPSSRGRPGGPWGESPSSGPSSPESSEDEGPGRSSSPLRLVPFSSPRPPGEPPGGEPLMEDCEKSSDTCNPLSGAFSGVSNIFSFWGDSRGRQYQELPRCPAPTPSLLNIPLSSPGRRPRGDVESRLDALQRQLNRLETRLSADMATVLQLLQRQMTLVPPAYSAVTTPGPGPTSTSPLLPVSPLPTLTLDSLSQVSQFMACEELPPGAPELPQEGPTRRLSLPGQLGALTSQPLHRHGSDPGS", "test": "primary screen, population patch clamp on CHO cells stably expressing hERG", "units": {"hERG current change (%, negative = inhibition) at 1uM": "%"}}
{"molecule": "CCN(CC)C(=O)CSc1nnc(CNc2ccc(F)cc2)n1-c1ccccc1", "hERG current change (%, negative = inhibition) at 1uM": 18.8}
{"molecule": "COC(=O)c1nn(-c2ccccc2)c(-c2ccccc2)c1C(=O)c1ccccc1", "hERG current change (%, negative = inhibition) at 1uM": 3.58}
{"molecule": "COc1ccc(CNC(=O)c2cc(C(C)=O)c[nH]2)cc1", "hERG current change (%, negative = inhibition) at 1uM": 7.89}
{"molecule": "Cc1cc(Cl)ccc1N=C1N=C(N)c2ccccc21", "hERG current change (%, negative = inhibition) at 1uM": 8.17}
{"molecule": "Cc1onc(-c2ccccc2)c1C(=O)Nc1nnc(-c2ccncc2)s1", "hERG current change (%, negative = inhibition) at 1uM": 2.16}
{"molecule": "COc1cc2c(cc1NC(=O)COC(=O)CNC(=O)c1ccccc1)oc1ccccc12", "hERG current change (%, negative = inhibition) at 1uM": 11.9}
{"molecule": "COc1ccccc1C(=O)N/N=C(\\C)CC(=O)Nc1ccc2c(c1)OCCO2", "hERG current change (%, negative = inhibition) at 1uM": 14}
{"molecule": "Cc1ccccc1N1CCN(S(=O)(=O)c2cccs2)CC1", "hERG current change (%, negative = inhibition) at 1uM": 6.13}
{"molecule": "CCOc1ccc(C(=O)NCC(=O)OCC(=O)Nc2ccccc2OC)cc1", "hERG current change (%, negative = inhibition) at 1uM": 2.32}
{"molecule": "O=C(COc1ccc(Cl)cc1Cl)Nc1ccc(S(=O)(=O)NC2=NCCCCC2)cc1", "hERG current change (%, negative = inhibition) at 1uM": 1.98}
{"molecule": "O=C(COC(=O)c1ccccc1SCC(=O)NC1CCS(=O)(=O)C1)NC1CCS(=O)(=O)C1", "note": "(centres unmarked)", "hERG current change (%, negative = inhibition) at 1uM": 11.8}
{"molecule": "Cc1ccc(C(=O)COC(=O)c2ccc3c(c2)C(=O)N(c2cccc4ncccc24)C3=O)cc1", "hERG current change (%, negative = inhibition) at 1uM": 19.2}
{"molecule": "O=C(c1ccc(S(=O)(=O)N2CCCC2)cc1)N1CCN(c2ccccc2)CC1", "hERG current change (%, negative = inhibition) at 1uM": 6.77}
{"molecule": "COc1ccc([N+](=O)[O-])cc1NC(=O)CC1SC(=Nc2cccc(C)c2C)N(/N=C(\\C)c2ccc(C)cc2)C1=O", "note": "(centres unmarked)", "hERG current change (%, negative = inhibition) at 1uM": -0.828}
{"molecule": "CCN1CCc2c(C#N)c(N3CCCCC3)nc(NCc3ccccc3)c2C1", "hERG current change (%, negative = inhibition) at 1uM": 14.3}
{"molecule": "O=C(NCC(=O)N1CCC2(CC1)NCCc1[nH]cnc12)c1ccc(F)cc1", "hERG current change (%, negative = inhibition) at 1uM": 13.3}
{"molecule": "COc1ccc(C2=NN(C(C#N)c3ccc(OC)cc3)C(c3ccccc3)C2)cc1", "note": "(centres unmarked)", "hERG current change (%, negative = inhibition) at 1uM": 0.598}
{"molecule": "COc1ccc(-c2cc(C(=O)NCC(c3ccco3)N(C)C)c3ccccc3n2)cc1OC", "note": "(centres unmarked)", "hERG current change (%, negative = inhibition) at 1uM": 3.53}
{"molecule": "COC(=O)c1ccsc1NC(=O)CN1CCN(c2ccc(F)cc2)CC1", "hERG current change (%, negative = inhibition) at 1uM": 15}
{"molecule": "COc1ccccc1N1CCN(C(=O)c2ccccc2N(C)S(=O)(=O)c2ccc(C)cc2)CC1", "hERG current change (%, negative = inhibition) at 1uM": 10.3}
{"molecule": "CS(=O)(=O)Nc1ccc(C(=O)NCC2CCCO2)cc1", "note": "(centres unmarked)", "hERG current change (%, negative = inhibition) at 1uM": 8.72}
{"molecule": "CCOc1ccccc1NS(=O)(=O)c1ccc2oc(=O)ccc2c1", "hERG current change (%, negative = inhibition) at 1uM": 6.61}
{"molecule": "O=C(Nc1ccccc1)OCC1CCCO1", "note": "(centres unmarked)", "hERG current change (%, negative = inhibition) at 1uM": 6.06}
